Data taken from the supplement of paper PMC9446081.
In all, about 39,000 compounds went through this assay and about 220 (0.56%) showed activity. Some of the results follow.

These compounds were tested on Escherichia coli K-12 BW25113 (assay: relative growth (OD600 normalised to plate interquartile mean) (fraction); higher = less growth inhibition, active = 0.2 or less). Details: 50 µM; LB; incubation time: overnight (16-24 h).
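Also: static incubation at 37 °C against the wild-type strain, values averaged over two biological replicates.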

| Compound | relative growth |
| --- | --- |
| C[C@H]1CCCCO[C@H](CN(C)Cc2ccc(C(F)(F)F)cc2)[C@@H](C)CN([C@@H](C)CO)C(=O)c2cc(NC(=O)Cc3ccccc3)ccc2O1 | inactive: 0.921 |
| C[C@@H]1CN([C@H](C)CO)S(=O)(=O)c2ccc(C#Cc3ccncc3)cc2O[C@H]1CN(C)S(=O)(=O)c1ccc(F)cc1 | inactive: 1.03 |
| COCc1cn(CC[C@H]2CC[C@@H](NC(=O)CCN3CCCCC3)[C@H](CO)O2)nn1 | inactive: 0.988 |
| C[C@H]1CN([C@@H](C)CO)C(=O)c2cc(NS(=O)(=O)c3ccccc3)ccc2O[C@H]1CN(C)S(=O)(=O)c1cccs1 | inactive: 1.02 |
| C[C@H]1CN([C@@H](C)CO)C(=O)c2cc(NC(=O)Nc3cccc4ccccc34)ccc2O[C@@H]1CN(C)C(=O)Nc1ccc2c(c1)OCO2 | inactive: 1.01 |
| C=CCC[C@H](Cc1ccc(F)cc1)C(=O)OC[C@@H](Cc1c[nH]c2ccccc12)NC(=O)[C@@H](CC=C)CC(=O)N(CCO)Cc1ccccc1 | inactive: 1.06 |
| Cc1csc2sc(C(=O)Oc3ccc(Cl)cc3)c(C)c12 | inactive: 1.04 |
| C[C@H]1CN([C@@H](C)CO)C(=O)Cc2cc(NS(C)(=O)=O)ccc2O[C@@H]1CN(C)Cc1ccc(C(=O)Nc2ccccc2N)cc1 | inactive: 1.01 |
| C[C@@H]1CCCCO[C@@H](CN(C)C(=O)Nc2ccc3c(c2)OCO3)[C@@H](C)CN([C@H](C)CO)C(=O)c2cc(NC(=O)c3ccccc3)ccc2O1 | inactive: 1.01 |
| COc1ccc(S(=O)(=O)N(C)C[C@H]2Oc3ccc(N(C)C)cc3CC(=O)N([C@H](C)CO)C[C@@H]2C)cc1 | inactive: 1.01 |
| C[C@H]1CN([C@@H](C)CO)C(=O)Cc2cc(NS(=O)(=O)c3ccccc3)ccc2O[C@@H]1CN(C)CC1CC1 | inactive: 1 |
| C[C@H]1CCCCO[C@@H](CN(C)Cc2ccc3c(c2)OCO3)[C@@H](C)CN([C@@H](C)CO)C(=O)c2cc(NC(=O)Cc3ccccc3)ccc2O1 | inactive: 1.01 |
| N#Cc1ccc(-c2cccs2)nc1 | inactive: 1 |
| COCC(=O)N1C[C@H](C)[C@@H](OC)CN(C)C(=O)c2ccc(NC(=O)Nc3ccccc3)cc2OC[C@H]1C | inactive: 1 |
| CCS(=O)(=O)NCC[C@H]1CC[C@@H](NC(=O)Cc2ccccn2)[C@H](CO)O1 | inactive: 1.02 |
| C[C@H]1CCCCO[C@H](CN(C)CC2CC2)[C@@H](C)CN([C@@H](C)CO)C(=O)c2cc(NC(=O)C3CCCCC3)ccc2O1 | inactive: 1 |
| C[C@@H]1CN([C@H](C)CO)C(=O)c2cc(NC(=O)Nc3cccc4ccccc34)ccc2O[C@@H](C)CCCCO[C@H]1CN(C)C(=O)C1CCCCC1 | inactive: 1.05 |
| C[C@H]1CCCCO[C@@H](CN(C)Cc2ccc(C(=O)O)cc2)[C@@H](C)CN([C@@H](C)CO)C(=O)c2cc(NC(=O)Nc3ccccc3)ccc2O1 | inactive: 1.01 |
| C[C@@H]1CN([C@@H](C)CO)C(=O)c2cc(NC(=O)CCCN(C)C)ccc2O[C@H]1CN(C)S(=O)(=O)c1ccc(Cl)cc1 | inactive: 0.983 |
| C[C@H](CO)N1C[C@H](C)[C@@H](CN(C)Cc2ccncc2)OCCCC[C@H](C)Oc2ccc(NC(=O)C3CCCCC3)cc2C1=O | inactive: 1 |

| Compound | relative growth |
| --- | --- |
| COc1ccc(CN(C)C[C@@H]2OCCCC[C@@H](C)Oc3ccc(NC(=O)Nc4ccc(F)cc4)cc3C(=O)N([C@@H](C)CO)C[C@H]2C)cc1 | inactive: 0.998 |
| C[C@@H]1CN([C@H](C)CO)C(=O)Cc2cc(NS(=O)(=O)c3ccc(Cl)cc3)ccc2O[C@@H]1CN(C)S(C)(=O)=O | inactive: 0.983 |
| C[C@H]1CCCCO[C@@H](CN(C)C(=O)c2ccccc2)[C@@H](C)CN([C@@H](C)CO)C(=O)c2cc(NC(=O)Cc3ccccc3)ccc2O1 | inactive: 0.999 |
| C[C@@H]1CN([C@@H](C)CO)C(=O)c2cc(NC(=O)CCCCCC(=O)Nc3ccccc3N)ccc2O[C@@H](C)CCCCO[C@@H]1CN(C)S(=O)(=O)c1ccc(Cl)cc1 | inactive: 1.02 |
| C=CC[C@@H](CC(=O)NCCO)C(=O)NC[C@@H](OC(=O)[C@@H](CC=C)CC(=O)OC(C)(C)C)c1ccccc1 | inactive: 0.993 |
| C[C@@H]1CN([C@@H](C)CO)C(=O)c2cc(NC(=O)C3CC3)ccc2O[C@@H]1CN(C)S(=O)(=O)c1ccc(Cl)cc1 | inactive: 0.984 |
| C[C@H]1CN([C@@H](C)CO)C(=O)Cc2cc(NC(=O)CCCCCC(=O)Nc3ccccc3N)ccc2O[C@H]1CN(C)C(=O)Nc1cccc2ccccc12 | inactive: 0.961 |
| COc1ccc(NC(=O)N(C)C[C@H]2OCCCC[C@H](C)Oc3ccc(NC(=O)CCC(F)(F)F)cc3C(=O)N([C@H](C)CO)C[C@@H]2C)cc1 | inactive: 1.01 |
| C[C@@H]1CN([C@H](C)CO)C(=O)c2cccc(NC(=O)c3cnccn3)c2O[C@@H]1CN(C)S(=O)(=O)c1ccc(F)cc1 | inactive: 1.02 |
| C[C@@H]1CCCCO[C@@H](CN(C)Cc2ccc3c(c2)OCO3)[C@@H](C)CN([C@@H](C)CO)C(=O)c2cc(NC(=O)Nc3ccc4c(c3)OCO4)ccc2O1 | inactive: 0.984 |
| C[C@H]1CN([C@@H](C)CO)C(=O)CCCn2nncc2CO[C@H]1CN(C)Cc1ccc2c(c1)OCCN2C | inactive: 1.02 |
| COc1ccc(NC(=O)N(C)C[C@H]2Oc3ccc(NS(C)(=O)=O)cc3C(=O)N([C@H](C)CO)C[C@H]2C)cc1 | inactive: 1.03 |
| CSc1[nH]c(=O)[nH]c(=O)c1C#N | inactive: 1.04 |
| C[C@H]1CN([C@@H](C)CO)C(=O)Cc2cc(NC(=O)CCC(F)(F)F)ccc2O[C@@H]1CN(C)S(=O)(=O)c1ccccc1 | inactive: 0.992 |
| C[C@H](CO)N1C[C@H](C)[C@H](CN(C)Cc2ccc(-c3ccccc3)cc2)Oc2ccc(NC(=O)NC3CCCCC3)cc2CC1=O | inactive: 1.02 |
| COc1ccc(NC(=O)Nc2ccc3c(c2)C(=O)N([C@@H](C)CO)C[C@@H](C)[C@H](CN(C)C(=O)Nc2ccc(C(F)(F)F)cc2)OCCCC[C@@H](C)O3)cc1 | inactive: 1.01 |
| Cc1ccc(S(=O)(=O)N(C)C[C@H]2OCCCC[C@@H](C)Oc3ccc(NS(=O)(=O)c4ccc(F)cc4)cc3C(=O)N([C@H](C)CO)C[C@H]2C)cc1 | inactive: 1.02 |
| CO[C@@H](CCO)[C@@H](O)c1ccc(O)c(F)c1 | inactive: 1 |
| O=C1c2ccccc2C(=O)C1c1ccc(Cl)cc1 | inactive: 1.07 |
| C[C@H](CO)N1C[C@H](C)[C@@H](CN(C)Cc2ccc(C(F)(F)F)cc2)Oc2ccc(NC(=O)Cn3cnnn3)cc2C1=O | inactive: 1.03 |

| Compound | relative growth |
| --- | --- |
| O=C(N[C@@H]1C=C[C@@H](CC(=O)N2CCOCC2)O[C@@H]1CO)c1ccccn1 | inactive: 0.986 |
| C[C@@H]1CN([C@H](C)CO)C(=O)c2cc(NC(=O)NC3CCCCC3)ccc2O[C@@H]1CN(C)S(C)(=O)=O | inactive: 1.02 |
| Cc1noc(C)c1NC(=O)N(C)C[C@H]1Oc2ccc(NS(=O)(=O)c3c(C)noc3C)cc2C(=O)N([C@H](C)CO)C[C@@H]1C | inactive: 1.01 |
| Cn1cnc(CCNC(=O)C[C@@H]2CC[C@@H]3[C@H](COC[C@H](O)CN3C(=O)Nc3ccc(C(F)(F)F)cc3)O2)c1 | inactive: 0.925 |
| Cc1noc(C)c1NC(=O)Nc1ccc2c(c1)C(=O)N([C@@H](C)CO)C[C@@H](C)[C@@H](CN(C)S(=O)(=O)c1cccs1)OCCCC[C@H](C)O2 | inactive: 0.988 |
| C[C@@H]1CCCCO[C@H](CN(C)C(=O)c2ccccc2)[C@H](C)CN([C@@H](C)CO)C(=O)c2cc(NC(=O)Nc3ccc4c(c3)OCO4)ccc2O1 | inactive: 1 |
| C[C@@H]1CCCCO[C@H](CN(C)Cc2ccc(C(=O)O)cc2)[C@H](C)CN([C@H](C)CO)C(=O)c2cc(NC(=O)Nc3ccc4c(c3)OCO4)ccc2O1 | inactive: 1.05 |
| Cc1noc(C)c1NC(=O)Nc1ccc2c(c1)C(=O)N([C@H](C)CO)C[C@H](C)[C@H](CN(C)S(=O)(=O)c1ccccc1)OCCCC[C@@H](C)O2 | inactive: 0.994 |
| COc1ccc(CN(C)C[C@H]2OCCCC[C@@H](C)Oc3ccc(NS(=O)(=O)c4ccc(F)cc4)cc3C(=O)N([C@H](C)CO)C[C@@H]2C)cc1 | inactive: 1.02 |
| CC(C)(Sc1cc(C(C)(C)C)c(O)c(C(C)(C)C)c1)Sc1cc(C(C)(C)C)c(OCC(=O)O)c(C(C)(C)C)c1 | inactive: 0.905 |
| C[C@@H]1CCCCO[C@@H](CN(C)S(=O)(=O)c2ccccc2)[C@H](C)CN([C@@H](C)CO)C(=O)c2cc(NS(=O)(=O)c3ccc(Cl)cc3)ccc2O1 | inactive: 0.966 |
| C[C@@H]1CN([C@@H](C)CO)C(=O)c2cc(NC(=O)CCCN(C)C)ccc2O[C@@H](C)CCCCO[C@@H]1CN(C)S(=O)(=O)c1cn(C)cn1 | inactive: 0.988 |
| CCCC(=O)Nc1ccc2c(c1)OC[C@@H](C)N(C(=O)Cc1ccccn1)C[C@@H](C)[C@H](OC)CN(C)C2=O | inactive: 0.982 |
| C[C@@H](NC(=O)C[C@H]1C=C[C@H](NC(=O)CN2CCOCC2)[C@H](CO)O1)c1ccccc1 | inactive: 1.01 |
| CNC[C@@H]1Oc2ccc(NC(=O)CCN3CCOCC3)cc2CC(=O)N([C@@H](C)CO)C[C@H]1C | inactive: 0.899 |
| COc1ccc([C@@H](NC(=O)C2CCN(CCOc3ccc(Cl)cc3Cl)CC2)c2ccco2)cc1 | inactive: 0.986 |
| CO[C@H]1CN(C)C(=O)c2ccc(NC(=O)c3ccc(F)cc3)cc2OC[C@H](C)N(C(=O)CN(C)C)C[C@@H]1C | inactive: 1 |
| COC(=O)OC[C@H]1O[C@@H](Oc2cc(C)cc(O)c2C(=O)CCc2ccc3occc3c2)[C@H](O)[C@@H](O)[C@@H]1O | inactive: 0.988 |
